In all, about 33,000 sequences were measured (“E-score (-0.5 to 0.5)”: median about -0.035, highest 2% from about 0.35 on). The list shows a part of the results.
Molecular target: T1, Pdr3 (UniProt P33200)
T1 sequence: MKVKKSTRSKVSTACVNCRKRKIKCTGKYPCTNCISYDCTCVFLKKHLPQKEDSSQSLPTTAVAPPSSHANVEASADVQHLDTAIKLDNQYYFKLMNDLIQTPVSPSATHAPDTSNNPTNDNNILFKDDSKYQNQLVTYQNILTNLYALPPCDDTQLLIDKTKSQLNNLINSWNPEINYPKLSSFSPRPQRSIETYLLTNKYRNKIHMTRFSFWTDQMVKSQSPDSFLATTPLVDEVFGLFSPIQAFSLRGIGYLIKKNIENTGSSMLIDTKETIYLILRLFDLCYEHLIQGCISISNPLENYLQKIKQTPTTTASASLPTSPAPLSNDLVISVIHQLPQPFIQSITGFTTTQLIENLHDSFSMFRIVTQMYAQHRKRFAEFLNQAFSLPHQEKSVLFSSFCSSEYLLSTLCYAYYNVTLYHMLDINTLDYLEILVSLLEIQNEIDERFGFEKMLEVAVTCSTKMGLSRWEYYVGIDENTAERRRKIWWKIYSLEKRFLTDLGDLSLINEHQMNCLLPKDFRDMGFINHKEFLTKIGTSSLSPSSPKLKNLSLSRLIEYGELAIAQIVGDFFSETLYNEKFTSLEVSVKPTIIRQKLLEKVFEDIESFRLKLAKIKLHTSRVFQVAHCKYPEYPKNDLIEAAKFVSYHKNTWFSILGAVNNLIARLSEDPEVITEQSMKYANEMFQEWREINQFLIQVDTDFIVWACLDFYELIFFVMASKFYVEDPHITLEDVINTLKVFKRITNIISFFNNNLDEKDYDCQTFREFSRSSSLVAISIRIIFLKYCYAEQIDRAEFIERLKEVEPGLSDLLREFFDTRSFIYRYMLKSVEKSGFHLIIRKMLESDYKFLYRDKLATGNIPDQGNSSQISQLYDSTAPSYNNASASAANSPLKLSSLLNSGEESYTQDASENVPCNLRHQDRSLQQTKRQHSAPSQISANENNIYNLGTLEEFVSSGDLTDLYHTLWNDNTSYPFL
Assay: PBM E-score (8-mer binding enrichment) (E-score (-0.5 to 0.5)); higher = stronger / more preferred TF binding; most listed sequences are background and not binding sites
Details: protein concentration: 200 nM; construct: GST-full length
In short: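 Yeast transcription factors carrying a GST tag, as full-length proteins or DNA-binding domains, were produced by PURExpress in vitro transcription/translation. About 100-200 nM protein was applied to universal all-10-mer Agilent arrays, double-stranded by primer extension on fresh or once-stripped slides. Bound protein was detected with fluorescent anti-GST, and scans were normalised with masliner. The Universal PBM Analysis Suite gave each ungapped eight-base word, pooled with its reverse complement, an E-score, a modified Wilcoxon-Mann-Whitney statistic.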

In order of rising “PBM E-score” value:
1. AGGCTACG  -0.383
2. AAGAGTAT  -0.289
3. AGTCCCTG  -0.273
4. CACCACTG  -0.268
5. ACTTGTTG  -0.258
6. CCCTAGAC  -0.258
7. AGCTGTGG  -0.25
8. GCTCCCTA  -0.242
9. CTCAGAAA  -0.235
10. ATGTCTTC  -0.231
11. CACGAGTC  -0.226
12. CAGGTCCA  -0.221
13. GAGCCTTA  -0.217
14. CAAAGTGG  -0.215
15. TAACTCTA  -0.213
16. GACTTGGC  -0.212
17. ACGAAGCG  -0.208
18. AGAGCAAA  -0.2
19. AGTACGCA  -0.199
20. CACAAGAC  -0.199
21. TACTTCTA  -0.195
22. AAGGAGGC  -0.192
23. GTTCGTGA  -0.187
24. ACCTTCAC  -0.185
25. CCTGTGTA  -0.178
26. CAGGAGAG  -0.174
27. AATGTAGG  -0.174
28. CATATCCA  -0.167
29. ACCTCGCA  -0.164
30. CCTGTGGC  -0.164
31. CGCCAAGC  -0.163
32. ATAGCACC  -0.159
33. CAAGTCCC  -0.156
34. GTCTGCTA  -0.156
35. CCCCCTCG  -0.156
36. GACCGTAC  -0.152
37. CAGACTAA  -0.15
38. ACGCAATG  -0.144
39. TACCTGAA  -0.141
40. CTCTTGAC  -0.139
41. GCGCTAGA  -0.135
42. CAAGACCA  -0.133
43. GTACGTAC  -0.133
44. GTAAAAAC  -0.132
45. CAAACGAG  -0.131
46. AGGTCTTA  -0.129
47. CCAGGGAC  -0.129
48. CTCTAATC  -0.128
49. AACAGGCT  -0.127
50. CTGTTTGA  -0.125
51. TCGCTAGA  -0.125
52. CCAAGAGG  -0.122
53. CTTACCCC  -0.12
54. CTAGTGAA  -0.117
55. CGGTGCCA  -0.115
56. AACAAGAA  -0.113
57. CGCTGTTC  -0.109
58. AAGCCTGG  -0.102
59. ATTATGGG  -0.101
60. CTCCCTTC  -0.1
61. AGTACGTA  -0.0984
62. TCTATTCA  -0.0967
63. CATGACGC  -0.0957
64. GTGACCGA  -0.0949
65. CCTAAACG  -0.0936
66. GATTACAC  -0.0894
67. CGATAATC  -0.0854
68. CTTGCGCC  -0.0849
69. TTGGCCAA  -0.0848
70. AGTGGATG  -0.0836
71. CTGGTACC  -0.0822
72. ACTCAGAT  -0.0813
73. GACGCGAC  -0.0793
74. CAGCATAG  -0.0785
75. CATAGCCA  -0.0781
76. CGTACATA  -0.0758
77. AGTTTTAA  -0.0741
78. GCAAGGGA  -0.0733
79. AAGGAGTG  -0.0725
80. CTAGGCCC  -0.0722
81. GTGGGACA  -0.0693
82. AAAGGTGG  -0.0649
83. ACCTTCGC  -0.0589
84. AACCGTGA  -0.0553
85. AACATTCG  -0.0545
86. GCAAAACA  -0.0528
87. ATTCTTTG  -0.0525
88. ATGTAAAG  -0.0504
89. AATACTAT  -0.0458
90. ATATTGAA  -0.0397
91. GTATTACA  -0.0393
92. ACCTGAGC  -0.039
93. CAGAGTCG  -0.0369
94. GCTGATGA  -0.0355
95. AGAGATAC  -0.0254
96. CACGGTGA  -0.0232
97. GTTCAGAA  -0.022
98. AACAGCAA  -0.0214
99. ACGAGAGG  -0.0206
100. ATCCTATA  -0.0193
101. ATGGATCA  -0.0186
102. ACGTCACC  -0.0162
103. AAGGTTCA  -0.0157
104. ATGTACCG  -0.0139
105. ATTAAGGA  -0.00828
106. ACCAATAT  -0.00757
107. GTCATTCA  -0.00308
108. GAGACCTC  -0.00248
109. AGCTGCGA  -0.00197
110. CACTGAAA  -0.00018
111. TGGCTTAA  0.00239
112. ACTTCTGC  0.00267
113. CGCCATAG  0.00518
114. ATGTCCAC  0.00618
115. AAGAGGCC  0.00696
116. CTGCAACA  0.00937
117. ACCCGTAA  0.0102
118. AGCGCCCT  0.0102
119. AATACAGA  0.0103
120. ACGATTAA  0.0126
121. ACAGACCC  0.0146
122. CGGCCATA  0.0189
123. AACTATCA  0.02
124. AGCACAGC  0.0216
125. AGGGTGTC  0.0226
126. GGTAGACC  0.0232
127. ATCTATCA  0.0254
128. GTTTTGTA  0.0261
129. GCGAATCC  0.0273
130. AGCAAGAT  0.0287
131. CAACAGCA  0.0291
132. ATATTATC  0.0315
133. ATAGAATA  0.0328
134. AAGATATA  0.0367
135. CCCTCGAC  0.0464
136. CAGAACAC  0.0469
137. AGCGGTCA  0.0481
138. GACCGACC  0.0504
139. ATGACAAG  0.0563
140. ACACACGC  0.057
141. CCGACTAC  0.0579
142. AATCATAG  0.0594
143. AGATGGCA  0.0745
144. CAAATCCC  0.093
145. ACCGAACG  0.0972
146. CGGCTCTA  0.111
147. AACGGGTC  0.113
148. AATTACCG  0.115
149. GCCATTCA  0.118
150. GGCTGACA  0.122
151. AAGAGACG  0.123
152. ATCGACGA  0.128
153. ACGGCCTA  0.131
154. GACTTCGC  0.132
155. ATCCCCAC  0.133
156. ACCCGACT  0.135
157. CGTCGGCC  0.143
158. GCGCGAAA  0.143
159. CATTCGGC  0.145
160. AGGCCGAC  0.164
161. AAAGCCCG  0.184
162. ACCCAAAC  0.186
163. AAGCCGAG  0.194
164. AGCGGGTG  0.196
165. CTGCGCGC  0.229
166. CTGTCCGA  0.247
167. CAGCGGAG  0.274
168. CTCGGCGC  0.279
169. GACCGGAC  0.28
170. CGCGGGGA  0.393
171. TCCGCGCA  0.397
172. GCTCGGAA  0.413

Reference: the supplement of paper PMC3334620
